According to PubChem BioAssay (Tox21):
The source made the active and inactive calls. Unless noted, the call rests on the fitted dose curve; in most records, active means well fitted activation curve with a large enough effect in the repeat runs; inconclusive means weak or mixed curves, or effect the other way; inactive means no such curve, though single readings can be large or run the other way.

Molecular target: Estrogen receptor (Homo sapiens) (UniProt P03372)
Assay: qHTS assay to identify small molecule agonists of the estrogen receptor alpha (ER-alpha) signaling pathway (AID 743075; calls by dose curve;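 further: HEK293 GripTite cells with ER-alpha and UAS-driven beta-lactamase reporter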)
Conditions: HEK293 ER-alpha-UAS-bla, beta-lactamase FRET ratio, 18 h; activation: at 70.1 µM (top of the series)
On the % scale 0 is the no-effect control and ±100 the full control effect; potency means the concentration at half of the fitted maximal effect; tags describe the fitted curve by direction and shape or compound fluorescence and quenching.

UniProt P03372, sequence (P03372 whole entry, looked up): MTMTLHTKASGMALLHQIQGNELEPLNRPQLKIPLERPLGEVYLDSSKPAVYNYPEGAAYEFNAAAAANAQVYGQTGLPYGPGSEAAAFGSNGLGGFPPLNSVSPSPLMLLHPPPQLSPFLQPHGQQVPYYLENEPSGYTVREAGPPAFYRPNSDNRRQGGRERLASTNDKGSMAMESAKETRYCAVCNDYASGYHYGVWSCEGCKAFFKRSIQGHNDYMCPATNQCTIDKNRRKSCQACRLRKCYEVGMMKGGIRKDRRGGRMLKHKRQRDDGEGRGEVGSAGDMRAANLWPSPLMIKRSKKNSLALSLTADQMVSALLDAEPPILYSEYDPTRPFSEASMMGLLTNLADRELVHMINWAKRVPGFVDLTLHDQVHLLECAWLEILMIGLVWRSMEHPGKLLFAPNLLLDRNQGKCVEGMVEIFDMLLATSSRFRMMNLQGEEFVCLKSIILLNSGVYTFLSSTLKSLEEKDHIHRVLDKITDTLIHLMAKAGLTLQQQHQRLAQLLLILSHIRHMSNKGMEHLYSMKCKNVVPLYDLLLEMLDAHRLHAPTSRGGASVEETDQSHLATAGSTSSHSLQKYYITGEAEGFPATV

| Compound | Potency | activation |
| --- | --- | --- |
| C=CCOc1ccc(CC(=O)O)cc1Cl | active: 3.79 µM [inconclusive] | – |
| CCOc1ccc(S(=O)(=O)O)c2cccnc12 | active: 23.9 µM [inconclusive] | – |
| C/C(=C(/CCO)SSCC1CCCO1)N(C=O)Cc1cnc(C)nc1N (stereo unspecified) | inactive | – |
| CCCCCCCCCCCCCCCC(=O)OC[C@@H](NC(=O)C(Cl)Cl)[C@H](O)c1ccc([N+](=O)[O-])cc1 | – | inconclusive: 15.9% |

Molecular target: Estrogen receptor (Homo sapiens) (UniProt P03372)
Assay: qHTS assay to identify small molecule agonists of the estrogen receptor alpha (ER-alpha) signaling pathway using the BG1 cell line (AID 743079); further: nearly all actives have a fitted effect of over 20% in size
Conditions: BG1Luc4E2 cells, ERE-luciferase agonist, 22 h; activation: at 70.3 µM (top of the series) unless noted

| Compound | Potency | activation |
| --- | --- | --- |
| CC(=O)Oc1cc(C)c(OC(C)=O)c2ccccc12 | inconclusive [inhibitor] | – |
| CCC[C@@H]1C[C@@H](C(=O)N[C@@H]([C@H]2O[C@H](SC)[C@H](O)[C@@H](O)[C@H]2O)[C@H](C)Cl)N(C)C1 | – | inactive: -8.15% |
| C=CCOc1ccc(CC(=O)O)cc1Cl | active: 266 nM | – |
| NC(=O)c1ccc[n+]([C@@H]2O[C@H](COP(=O)([O-])OP(=O)(O)OC[C@H]3O[C@@H](n4cnc5c(N)ncnc54)[C@H](O)[C@@H]3O)[C@@H](O)[C@H]2O)c1 | – | inactive: 2.96% [at 32.5 µM] |
| CC1(C)S[C@@H]2[C@H](NC(=O)C(C(=O)Oc3ccc4c(c3)CCC4)c3ccccc3)C(=O)N2[C@H]1C(=O)O (stereo partly specified) | inconclusive [activator, full curve, poor fit] | – |
| O=P(O)(O)C(O)(Cc1cnc2ccccn12)P(=O)(O)O | – | inactive: -0.0844% |
| CC(C)(C)CC(C)(C)c1cc(Cc2cc(C(C)(C)CC(C)(C)C)cc(-n3nc4ccccc4n3)c2O)c(O)c(-n2nc3ccccc3n2)c1 | – | inconclusive: 15.7% [phenotype inactive] |
